Data on 58 molecules can be found in patent publication US20090143279A1 (priority 2007, published 2009).

For the test, the system named is cellular ATP levels. The following applies: for ATP (composite Z-score): normalized score vs mock-treated (DMSO) wells.
Where [1] appears, read: composite Z-score vs DMSO, Conc 20 μM.
Setting [2] is: normalized composite Z-score vs mock-treated (DMSO) wells, Conc 20 μM.
[3] abbreviates: composite Z-score vs DMSO wells, Conc 20 μM.
[4] abbreviates: 20 μM, composite Z-score vs DMSO.
The mark [5] stands for this setting: composite Z-score vs mock-treated (DMSO) wells, Conc 20 μM.

Like-named read-outs stand apart in the source and are kept apart here.

As for `CC1=CC(=O)C2=C(C)C[C@H](O)[C@@H]3[C@H](OC(=O)[C@H]3C)[C@H]12` [austricine], for the setting “Conc 20 μM”, the “ATP (composite Z-score)” value is 0.158.

`C/C=C(\C)C(=O)O[C@H]1C[C@@H](OC(C)=O)[C@@]2(C(=O)OC)CO[C@H]3[C@@H](O)[C@@](C)([C@]45O[C@@]4(C)[C@H]4C[C@@H]5O[C@@H]5OC=C[C@@]54O)[C@H]4[C@]1(CO[C@]4(O)C(=O)OC)[C@@H]32` [azadirachtin]: the ATP under setting [1] is reported as 0.299.

For `COc1cc2c3cc1Oc1cc(ccc1O)CC1c4c(cc(OC)c(O)c4Oc4ccc(cc4)CC3N(C)CC2)CCN1C` (centres unmarked) [bebeerine], the “ATP (composite Z-score)” value (Conc 20 μM) is 0.034.

`COc1cc2c3cc1Oc1c(OC)c(OC)cc4c1[C@@H](Cc1ccc(O)c(c1)Oc1ccc(cc1)C[C@@H]3N(C)CC2)N(C)CC4` [berbamine] registered an ATP under setting [1] of 0.168.

Under setting [2], `CC12CCCC(O)(C1)C1CC(C)(C)C1CC2` (stereo not drawn) [beta-caryophyllene alcohol] returned an ATP of −0.243.

`COc1cc2c(cc1OC)[C@@H]1C(=O)c3ccc4c(c3O[C@@H]1CO2)CC(C(C)C)O4` (stereo partly drawn) [beta-dihydrorotenone, reference compound]: the ATP by setting is: (Table 4, C2C12 myotubes, 48 h, composite Z-score) −2.497; under setting [1], −2.497.

Regarding `CNCCc1ccccn1` [betahistine], the ATP under setting [3] was found to be 1.977.

As for `C[N+](C)(C)CC(=O)O` [betaine], the ATP is −0.215.

The molecule `C=C(C)[C@@H]1CC[C@]2(C(=O)O)CC[C@]3(C)[C@H](CC[C@@H]4[C@@]5(C)CC[C@H](O)C(C)(C)[C@@H]5CC[C@]43C)[C@@H]12` [betulinic acid] came in with an ATP under setting [1] of −0.271.

For `C=CC1=C(C)/C(=C/c2[nH]c(Cc3[nH]c(/C=C4\NC(=O)C(C)=C4C=C)c(C)c3CCC(=O)O)c(CCC(=O)O)c2C)NC1=O` [bilirubin], the “ATP (composite Z-score)” value (Conc 20 μM) is on record as 0.936.

`COc1ccc(-c2coc3cc(O)cc(O)c3c2=O)cc1` [biochanin A]: the “ATP (composite Z-score)” value (Conc 20 μM) was determined as 0.278.

`CCc1ccc2c(O)c3c(cc2c1C(=O)OC)C(=O)c1c(O)ccc(O)c1C3=O` [bisanhydrorutilantinone] registered an ATP under setting [1] of 0.217.

Turning to `Oc1c(Cl)cc(Cl)cc1Sc1cc(Cl)cc(Cl)c1O` [bithionol], the ATP under setting [3] is on record as −4.693.

As for `CC(C)C[C@H]1C(=O)N2CCC[C@H]2[C@]2(O)O[C@](NC(=O)[C@@H]3C=C4c5cccc6[nH]c(Br)c(c56)C[C@H]4N(C)C3)(C(C)C)C(=O)N12` [bromocriptine], the ATP under setting [4] turned out to be 0.331.

Turning to `Oc1c(Br)cc(Br)c2cccnc12` [broxyquinoline], under setting [4], the ATP is −1.237.

Turning to `COc1cc2c(cc1OC)[C@@]13CCN4CC5=CCO[C@H]6CC(=O)N2[C@H]1[C@H]6[C@H]5C[C@H]43` [brucine], where the note is “Conc 20 μM”, the “ATP (composite Z-score)” value came out at 0.579.

With `COc1ccc(-c2cc(=O)c3c(O)cc(O[C@H]4O[C@H](CO[C@@H]5O[C@@H](C)[C@H](O)[C@@H](O)[C@H]5O)[C@@H](O)[C@H](O)[C@H]4O)cc3o2)cc1` [buddleoflavonoloside], where the note is “Conc 20 μM”, the “ATP (composite Z-score)” value stood at 0.643.

With `CCCCN1CCCCC1C(=O)Nc1c(C)cccc1C` (centres unmarked) [bupivacaine], the ATP reads like this: (13.86 μM, composite Z-score vs DMSO) −0.329; under setting [4], −1.058.

Take `COC(=O)C[C@H]1C2(C)CC34OC5(C)O[C@@]6([C@H](OC(C)=O)C(OC(C)=O)[C@]7(C)C(/C(=C(/O)C(C)C)C(=O)O[C@H]7c7ccoc7)[C@@]6(O5)[C@H](OC(C)=O)[C@@]3(O)C2OC(=O)C(C)C)[C@]14C` (some centres unmarked) [bussein]: the ATP was 0.214 under setting [1] and −0.071 under setting [5].

Take `CCC[C@H]1CC2=C(C[C@@H](CC)CC3=C1C(=O)OC3=O)C(=O)OC2=O` [byssochlamic acid]: for the setting “Conc 20 μM”, the “ATP (composite Z-score)” value is given as −1.035.

Turning to `NCCCCCN` [cadaverine], the ATP under setting [1] is 0.066.

For the molecule `CC1=CC2C(C(C)C)CCC(C)(O)C2CC1` (centres unmarked) [cadin-4-en-10-ol], under setting [2], the ATP was determined as 0.543.

`C[C@@]12CCc3occc3[C@H]1CC[C@@]13C[C@@H](CC[C@H]12)[C@@](O)(CO)C3` [cafestol] yielded an ATP under setting [1] of 0.332.

On to `O=C(O)CN(CC(=O)O)Cc1cc2c(cc1O)Oc1cc(O)c(CN(CC(=O)O)CC(=O)O)cc1C21OC(=O)c2ccccc21` [calcein], for which, under setting [3], the ATP amounted to 2.057.

As to `CCOc1nc2cccc(C(=O)OC(C)OC(=O)OC3CCCCC3)c2n1Cc1ccc(-c2ccccc2-c2nn[nH]n2)cc1` (centres unmarked) [candesartan cilextil], the ATP under setting [1] is on record as 0.721.

For `C[C@]12CCC(=O)C=C1C=C[C@@H]1[C@@H]2CC[C@@]2(C)[C@H]1CC[C@@]2(O)CCC(=O)O` [canrenoic acid], under “Conc 20 μM”, the “ATP (composite Z-score)” value was −0.434.

With `C[C@@]12C(=O)OC(=O)[C@]1(C)[C@H]1CC[C@@H]2O1` [cantharidin], the ATP reads like this: under setting [1], −6.195; (composite Z-score vs DMSO, Conc 20.38 μM) −6.628.

For the molecule `COC(=O)C[C@H]1C(C)(C)C(=O)[C@@H]2CC3=C(CC[C@]4(C)C3=CC(=O)O[C@H]4c3ccoc3)[C@@]1(C)C2=O` [carapin-8 (9)-ene], the “ATP (composite Z-score)” value (Conc 20 μM) was found to be 0.562.

On to `C[N+](C)(C)CCOC(N)=O` [carbachol], for which the ATP under setting [4] is given as −0.772 and the ATP (27.18 μM, composite Z-score vs DMSO) was −1.509.

Under setting [1], `COC(=O)N/N=C/c1c[n+]([O-])c2ccccc2[n+]1[O-]` [carbadox] came in with an ATP of −0.297.

For `CC1(C)S[C@@H]2[C@H](NC(=O)C(C(=O)O)c3ccccc3)C(=O)N2[C@H]1C(=O)O` (some centres unmarked) [carbenicillin], the ATP under setting [4] was found to be 0.037.

Regarding `Cc1c(C(=O)O)c(O)cc2c1C(=O)c1c(O)c([C@@H]3O[C@H](CO)[C@@H](O)[C@H](O)[C@H]3O)c(O)c(O)c1C2=O` [carminic acid], the ATP under setting [1] is reported as −0.059.

Under setting [2], `C=C1CC[C@H]2O[C@]2(C)CC[C@@H]2[C@@H]1CC2(C)C` [carylophyllene oxide] showed an ATP of 0.604.

Under setting [2], `CC(=O)Oc1cc(OC(C)=O)c2c(c1)O[C@H](c1ccc(OC(C)=O)c(OC(C)=O)c1)[C@@H](OC(C)=O)C2` [catechin pentaacetate] registered an ATP of 1.098.

On to `COc1cc(OC)c2c(c1)O[C@H](c1ccc(OC)c(OC)c1)[C@@H](O)C2` [catechin tetramethylether], for which the ATP under setting [2] was 0.310.

`COc1cc(O)c(C(=O)c2ccccc2)cc1O` [cearoin]: under setting [5], the ATP is recorded as −1.727.

In the case of `CC1(C)C(=O)C=C[C@@]2(C)C1=C(O)C(=O)[C@]1(C)[C@@H]2CC[C@@]2(C)[C@H](c3ccoc3)C[C@H]3O[C@]321` [cedrelone], the ATP under setting [5] was −8.647.

On to `CC(=O)O[C@]1(C)CC[C@@]23C[C@@H]1C(C)(C)[C@@H]2CC[C@H]3C` [cedryl acetate], for which the ATP under setting [2] worked out at 0.493.

Under setting [1], `N[C@@H](C(=O)N[C@@H]1C(=O)N2C(C(=O)O)=C(Cl)CS[C@H]12)c1ccccc1` [cefaclor] had an ATP of 0.137.

Under setting [1], `CO/N=C(\C(=O)N[C@@H]1C(=O)N2C(C(=O)OCOC(=O)C(C)(C)C)=C(/C=C\c3scnc3C)CS[C@H]12)c1csc(N)n1` [cefditorin pivoxil] gave an ATP of 1.534.

Under setting [1], `CO/N=C(\C(=O)N[C@@H]1C(=O)N2C(C(=O)O)=C(COC(C)=O)CS[C@H]12)c1csc(N)n1` [cefotaxime] showed an ATP of 0.479.

In turn, `CO/N=C(\C(=O)N[C@@H]1C(=O)N2C(C(=O)O)=C(CSc3nc(=O)c(=O)[nH]n3C)CS[C@H]12)c1csc(N)n1` [ceftriaxone] yielded an ATP of −0.735.

For the molecule `CO/N=C(\C(=O)N[C@@H]1C(=O)N2C(C(=O)O)=C(COC(N)=O)CS[C@H]12)c1ccco1` [cefuroxime], the ATP under setting [1] came to 0.476.

Under setting [1], `CC1=C(O)C(=O)C=C2C1=CC=C1[C@@]2(C)CC[C@@]2(C)[C@@H]3C[C@](C)(C(=O)O)CC[C@]3(C)CC[C@]12C` [celastrol] had an ATP of −8.640.

`OC[C@H]1O[C@@H](O[C@H]2[C@H](O)[C@@H](O)[C@H](O)O[C@@H]2CO)[C@H](O)[C@@H](O)[C@@H]1O` [cellobiose (D[+])] showed an ATP under setting [2] of 1.049.

With `COc1ccc(-c2oc3cc(O[C@@H]4O[C@H](CO)[C@@H](O)[C@H](O)[C@H]4O)c(OC)c(O)c3c(=O)c2OC)cc1O` [centaurein], the “ATP (composite Z-score)” value (Conc 20 μM) was −0.337.

In the case of `CCOC(=O)CCCCCCCCCCCCC1C=CCC1` (centres unmarked) [chaulmoogric acid, ethyl ester], the ATP under setting [3] is on record as −0.123.

Consider `O=C(CCCCCCCCCCCCC1CCCC1)Nc1ccc(S(=O)(=O)c2ccc(NC(=O)CCCCCCCCCCCCC3CCCC3)cc2)cc1` [chaulmosulfone], for which the “ATP (composite Z-score)” value (Conc 20 μM) is −0.078.

In the case of `O=C(O)CCCc1ccc(N(CCCl)CCCl)cc1` [chlorambucil], the ATP runs as follows: (13.14 μM, composite Z-score vs DMSO) −0.010; under setting [4], 0.189.

For `[H]/N=C(\N/C(=N/[H])NCCCCCCNC(=N)NC(=N)Nc1ccc(Cl)cc1)Nc1ccc(Cl)cc1` [chlorhexidine], the ATP is listed as −2.238 (7.92 μM, composite Z-score vs DMSO) and −1.078 under setting [4].

Consider `Cc1cc(O)ccc1Cl` [chlorocresol], for which the ATP under setting [4] is −0.105.

Under setting [3], `NS(=O)(=O)c1cc2c(cc1Cl)N=CNS2(=O)=O` [chlorothiazide] displayed an ATP of 0.445.

For `Cc1cc(O)cc(C)c1Cl` [chloroxylenol], the ATP under setting [4] was −1.134.

In the case of `C[C@H](CCC(=O)O)[C@H]1CC[C@H]2[C@@H]3CCC4CCCC[C@]4(C)[C@H]3C=C[C@]12C` (some centres unmarked) [chol-11-enic acid], the ATP under setting [2] was −0.496.

`CC(C)CCC[C@@H](C)[C@H]1CC[C@H]2[C@@H]3CCC4CCCC[C@]4(C)[C@H]3CC[C@]12C` (some centres unmarked) [cholestane] returned an ATP under setting [1] of 0.220.

As for `CC(C)CCC[C@@H](C)C1CC[C@H]2[C@@H]3CCC4CC(=O)CC[C@]4(C)[C@H]3CC[C@]12C` (some centres unmarked) [cholestanone], the “ATP (composite Z-score)” value (Conc 20 μM) is reported as 1.206.

As for `CC(=O)O[C@H]1CC[C@@]2(C)C(=CC[C@H]3[C@@H]4CC[C@H]([C@H](C)CCCC(C)C)[C@@]4(C)CC[C@@H]32)C1` [cholesteryl acetate], the ATP under setting [1] was 0.018.

Consider `COC(=O)CC[C@@H](C)[C@H]1CC[C@H]2[C@@H]3[C@H](O)C[C@@H]4C[C@H](O)CC[C@]4(C)[C@H]3C[C@H](O)[C@]12C` [cholic acid, methyl ester], for which the ATP under setting [2] is 2.202.
